According to article PMC10480186:

Molecular target: DNAJB1, P25685
Experiment: dynamic light scattering; 30 µM protein in 20 mM Hepes-KOH pH 7.6, 50 mM KCl, 2 mM DTT; volume-based size distributions; the wt also with 300 mM NaCl, 5% 1,6-hexanediol or at 40 °C, which shift it to smaller particles; self-association: dimer and dimers to larger oligomers
Conditions: remark: other sources report otherwise

B1: DNAJB1 (natural protein)
chain: MGKDYYQTLGLARGASDEEIKRAYRRQALRYHPDKNKEPGAEEKFKEIAEAYDVLSDPRKREIFDRYGEEGLKGSGPSGGSGGGANGTSFSYTFHGDPHAMFAEFFGGRNPFDTFFGQRNGEEGMDIDDPFSGFPMGMGGFTNVNFGRSRSAQEPARKKQ[left out - about 150 residues]PERIPQTSRTVLEQVLPI
Binder B1 has a stoichiometry N of 2.
